Source: publication PMC2974439 (Biochemistry, 2010)

Target: T1, EntF-H6 (E. coli, UniProt P11454 1-1293)
T1 sequence (looked up): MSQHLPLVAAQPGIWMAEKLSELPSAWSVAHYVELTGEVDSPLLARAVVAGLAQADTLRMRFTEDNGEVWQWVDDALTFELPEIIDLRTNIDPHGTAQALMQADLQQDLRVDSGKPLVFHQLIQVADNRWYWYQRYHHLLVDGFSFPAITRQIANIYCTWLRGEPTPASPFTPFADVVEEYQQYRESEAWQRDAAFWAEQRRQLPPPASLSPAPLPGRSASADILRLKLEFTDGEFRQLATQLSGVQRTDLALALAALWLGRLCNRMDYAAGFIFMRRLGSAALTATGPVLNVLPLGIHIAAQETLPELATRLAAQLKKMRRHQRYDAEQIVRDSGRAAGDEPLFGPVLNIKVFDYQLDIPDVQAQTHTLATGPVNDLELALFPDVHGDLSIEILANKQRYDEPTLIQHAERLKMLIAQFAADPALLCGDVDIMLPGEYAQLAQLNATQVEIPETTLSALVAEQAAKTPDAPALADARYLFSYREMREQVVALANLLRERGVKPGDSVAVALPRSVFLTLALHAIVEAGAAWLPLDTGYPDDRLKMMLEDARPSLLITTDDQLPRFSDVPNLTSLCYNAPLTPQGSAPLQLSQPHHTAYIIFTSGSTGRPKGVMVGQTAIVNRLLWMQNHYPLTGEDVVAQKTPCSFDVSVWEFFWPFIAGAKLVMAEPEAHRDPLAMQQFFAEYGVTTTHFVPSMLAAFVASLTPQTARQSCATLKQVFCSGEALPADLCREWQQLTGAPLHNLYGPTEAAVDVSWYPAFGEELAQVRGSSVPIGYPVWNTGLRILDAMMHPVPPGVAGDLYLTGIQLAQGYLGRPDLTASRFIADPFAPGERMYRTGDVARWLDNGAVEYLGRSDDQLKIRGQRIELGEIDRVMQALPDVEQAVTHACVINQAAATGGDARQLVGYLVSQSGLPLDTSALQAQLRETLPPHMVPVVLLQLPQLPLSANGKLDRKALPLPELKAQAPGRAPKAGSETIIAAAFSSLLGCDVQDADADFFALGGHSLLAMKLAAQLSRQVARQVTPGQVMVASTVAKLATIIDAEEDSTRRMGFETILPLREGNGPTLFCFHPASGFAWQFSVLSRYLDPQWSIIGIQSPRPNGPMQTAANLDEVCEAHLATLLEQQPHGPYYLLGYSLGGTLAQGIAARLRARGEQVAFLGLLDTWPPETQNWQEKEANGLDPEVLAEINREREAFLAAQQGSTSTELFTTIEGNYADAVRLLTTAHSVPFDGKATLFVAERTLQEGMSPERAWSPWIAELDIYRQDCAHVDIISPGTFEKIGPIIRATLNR
Experiment: co-purification after co-expression

B1: YbdZ (natural protein, E. coli, UniProt P18393 1-72, looked up)
chain: MAFSNPFDDPQGAFYILRNAQGQFSLWPQQCVLPAGWDIVCQPQSQASCQQWLEAHWRTLTPTNFTQLQEAQ
  stoichiometry N: 0.6 mol YbdZ per mol EntF
